The chains are these.
B1: OR4K15 (parent)
chain: GUUAACGGUCAUAGGCCAUGGAAACUAGGAGCACCAUUUCGCUGCCAGUGAAGAAAUGAACAAAGAAAAUCUGGGCCAGGCAGGCAUCAAAAGAAAUAGUCUUGCGCUCAACCAGAAAGUCUGUAAUCAUUUUAAGGGUA

Read counts are not given, so values of variants with three or more changes are uncertain.

The variants in this series derive from B1. Description: self-cleavage, relative activity (ratio to wild type); higher = more cleavage; in vitro, sequencing; the parent is a self-cleaving ribozyme.
As to A5G A11G A51G A110U, the self-cleavage was determined as 1.99. With A4G A13G A94G A96G U120G A126G the figure was 1.69. As for A4G A33G A52G U132C, the figure is 0.71; as for A5G A22G A59G, 0.84; as for A5G A52G A98G A114G, 0.12. With U3C U9C A51G U108C the figure was 0.06. Turning to U3C A63G A95G, the self-cleavage came out at 1.9.

Take A4G U70C A89G A92U U102C U108C: the self-cleavage came to 0.02. With U3C A59G U103C the figure was 0.64; with U3A U38C A63G, 0.94. In the case of A4G U9C A56G A94G, the self-cleavage was 1.48. With U3C A22G U49C U70C the figure was 0.9; with A5G A33G U103A, 0.22. With U3A A64U A90G A94G, the self-cleavage turned out to be 0.05. As for A4G C45U A78G A92G A96G, the figure is 0.04; as for A5G A23G A24G U37C A59G A60G, 0.94; as for A5G A54G A114C A117G A126G, 0.

In the case of A4G A24G A94G U124C, the self-cleavage came to 0.81.

On to A4G U9C A51U U122C, for which the self-cleavage stood at 0.47. With U3C A68G A110G A118G U130C the figure was 0.06; with A4G G50A A96G A111U, 0.05; with A5G A36U G53U A64G A90G, 1.41. With A5G A11G G14A U43C A78C A91U A96G U102C the figure was 0.44.

For A4G U122C U132C, the self-cleavage is 0.66. As for U3C A13G A23G U43C A52G A67G, the figure is 1.18; as for A5G A22G A92G, 2.42. In the case of A4U A96U A98G U131C, the self-cleavage worked out at 2.14. With A5C G7A G14A A23G A59G the figure was 1.5; with A5G A63G U124A, 0.85; with U3A U38C C61U C105U A110C U122C, 0.02.

In the case of A5G A47G A66G U103A, the self-cleavage was determined as 0.44. Take A5G A23U U43C A89G: the self-cleavage was found to be 1.06. As for A5G A36G A69G U130C U131C, the figure is 0.32; as for A4G U43A A63G G136A, 2.14. With U3G A11G A82G G83C A86G A116G the figure was 0.06; with A4G A5G A52U A117G, 0.31; with A4G A47U A91G U132C, 0.47.

On to A5G A60G G79A, for which the self-cleavage was 0.26. As for A4G U9C A23G, the figure is 0.98; as for U3C A51U A63G U133C A140G, 1.15; as for A4G A11U A24G A30G G44A A117G, 1.6. As for A5G A33G G104A, the figure is 0.13; as for U3C G48C U102C U103C A117G A129G, 0.08; as for A5G A33G A118U U120C, 0.23. With U3C C42A A52G A126G the figure was 0.33. For A4G A18U U87C U100C A129G, the self-cleavage was determined as 0.95.

As to A5G A11C A23G A86U A126G, the self-cleavage was 0.86. Regarding A5G A54C U108A A110C, the self-cleavage amounted to 0.02. With A4G A59G A78G the figure was 0.67.

Consider A5G A24G A66G A89G, for which the self-cleavage came to 0.92. With U3C G14A A30G A59U A62G the figure was 0; with A5G A33G A63G A78U A114U A118G A140G, 0. With A5G A22G A54C A78C A91U U108A the figure was 0.14.

For the variant A4G A89U U120C, the self-cleavage amounted to 0.59.

As to A5G A24C A67G A82G A91G A92G A135G, the self-cleavage turned out to be 0.28. As for A4G A52G U87C A95G, the figure is 1.42; as for A4G A11G A82G U108G A140G, 0.03. Take A4G A11G U19C A66G U122A: the self-cleavage is 0.63. With A4G C16U A67G U122C the figure was 1.6; with A5G A27U A52G A68G, 0.97.

For A4G U43C A52U A59G, the self-cleavage amounted to 1.6.

For the variant A4G A47U A56G U130C A140G, the self-cleavage amounted to 1.49.

For the variant A5G A36U A98G U124A, the self-cleavage is 0.17.

With A4G C61G C85G A134U, the self-cleavage stood at 0.92.

On to A5G A11G U43C A52G A118G, for which the self-cleavage was 1.25. As for A5G A22G A78G, the figure is 0.18; as for U2G U37C A51G, 0.86. With U3C A18G U131C A135G the figure was 0.61.

For the variant A5C A55U A86G A90G U108C A117G, the self-cleavage was 0. As for U3C A22U A90G A110G, the figure is 0.06; as for U3C A96G U108C U131C, 0.01; as for A4G U100C A110G A117G, 0.36. In the case of U3A C16U U26C U108C U131C, the self-cleavage came to 0.02. As for A4G C16U A18G, the figure is 1.31; as for A5G A36G A135U, 1.03. With A4G U9C A69G A129G the figure was 0.25. As for U3C A86U A96G A126G, the figure is 1.6; as for A5G A22G A64G, 1.22. On to A5G A23U U100C A118G, for which the self-cleavage amounted to 1.11. As for A5G A18G U39A A51U U108A, the figure is 0.06; as for A5G A23G U70C U108C, 0.05; as for A4G A55C U130C, 0.23.

With A4G U70A U130C, the self-cleavage is 0.5. As to U3C A22G U122C U131C, the self-cleavage was found to be 0.75. As for A5G A27U A69U A89G A110G A117G, the figure is 0.08; as for A5G A13G A66G A92G, 1.31; as for U3C A60G A89G, 1.3. As for A4G G41U A64G U120C, the figure is 0.87. As for A4G U43C U100C U124C, the figure is 1.23; as for A4G U72A A95U A96G, 0.4; as for U3A A63G A86G U87C A110G A135U, 0.06. Regarding A5C U38C A54G G83A U97C, the self-cleavage is 1.65. Turning to A4G A69G A117G U131C, the self-cleavage is 0.54. As for A4U C42A A110G, the self-cleavage is 0.13.

For the variant U3C U37C U39C, the self-cleavage is 1.37. With A5G A22G A67G U100C the figure was 1.63; with U3G U9A C25U A63U, 0.65; with A5G A62G C107U U108C, 0.15.

For the variant A5G A51U A116G, the self-cleavage is 0.11. With A4G A11G A23G the figure was 1.21; with A4G A36G A59G A68G U133A, 0.58. With U3C A55G A64G the figure was 0.9; with A5G A60G U108A, 0.12; with A4G U39C A69G A117G U120A, 1.99. With A4G A82U U87A the figure was 0.25. Regarding U3C A47U A52U A62G, the self-cleavage stood at 0.67. With A4G A27C A56G G73U U131C the figure was 0.18; with U3C A11G A36C, 1.64.

Take A4G A52U A92C: the self-cleavage amounted to 1.23. With A4U G7U A30U A36U A90G U130C the figure was 0.9; with A4G C25A A111G, 0.11; with A5G A18U A22C A90G A114G, 0.36. As for A5G A55G A129G, the figure is 0.46; as for A5G A22G U132C, 0.39; as for A5C A33U U122A, 1.58.

On to A5G A33C A51G A129G, for which the self-cleavage came to 1.13.

Consider A5G A36U U49C A54G A68G U100C, for which the self-cleavage is 1.13.

In the case of A5C U9A U37C G104A, the self-cleavage was found to be 0.03.

Regarding A5G A22G A55U, the self-cleavage was 0.76.

Consider A5G A51U A94G, for which the self-cleavage came to 1.31. As for A4G A11U U49C U72C U130C, the figure is 0.16. As for U3C A51U A82G A111U, the figure is 0.06.

Take A5C A33U A60G A78G A94G A98U U130C U132A: the self-cleavage was 0.31. With A4G A69G A135U the figure was 1.49; with A4G A23G A69G, 1.1; with U2G U19C A64G A114U C128U, 0.09. Take A4G U9C A33G U103C: the self-cleavage is 0.83. For the variant A4G A33U U39C A89G A140C, the self-cleavage is 1.67. With A4G U72A A116G the figure was 0.09. As for A4G A22G U39C U102C, the figure is 0.96. With A5G A22G A47G A55U A94G the figure was 1.05; with A5G A22U C61A A129G, 1.15; with U3C A22U A78G A111G, 0.03. With U3C A52U A62G U108C A111U U127A, the self-cleavage was 0.

Consider A5G A52G A64G U70C A78G, for which the self-cleavage turned out to be 0.16. With U2G U39A A51G A55G A126G the figure was 0.52; with A5G A54G U70A, 1.23.

In the case of U3C U43C A54G, the self-cleavage was 1.25. With A5G A18U C42A A94G the figure was 0.91. With A4G A59G A66G C101U U108C the figure was 0.06; with A5G A47C U70C U100A, 0.31; with A4G U19C A52G, 0.42.

On to U3C A64C A94G U131C, for which the self-cleavage amounted to 0.56. As for A5G A18G A60G A78G A117G, the figure is 0.84; as for U3C A27U A66G U100A, 0.19; as for U3C G50U A110U, 0.6. With U3C A68G A92G U108A U130C U132C the figure was 0; with A4G A5G A23U A89G U103C U120C, 0.73.

In the case of A5G A64C A78C G106A A117U, the self-cleavage came to 0.01.

On to U3C G53A A59G A114U, for which the self-cleavage turned out to be 0.05. With U3G U70A A91G the figure was 1.2; with A4G U19C U38C, 1.16; with A4G C34U A66G A78U, 0.37. U3C A11G G119A: the self-cleavage turned out to be 0.28.

With A4G A5U U43C, the self-cleavage turned out to be 1.63.

For the variant A4G G41U A89U A118U, the self-cleavage was 1.16. With A5G A23U A63G U100C the figure was 1.7; with A4G U9A A52G, 0.79; with A4G A5G U37C U38A, 1.03. With A4G A24G A95G A117U the figure was 0; with A5C A30C U38C A91G A92G, 1.02. In the case of A4G A60G A125G, the self-cleavage amounted to 0.45.

On to U3C A22G U130C, for which the self-cleavage came to 1.23. Turning to U3A U12C G53A A56G A82G, the self-cleavage is 0.99. With A4G A67G U72C U130C the figure was 0.16; with A4G A60G C88G G93U, 0.98. As for U3A C112U U127C, the figure is 0.01.

Source of the values: the RNAGym collection of RNA variant scans (doi:10.7554/elife.90254).
